# Laboratory results published in article PMC9911399, “Two distinct binding modes provide the RNA-binding protein RbFox with extraordinary sequence specificity”.
# Numbering of substitutions follows the chain as printed; changes in the protein carry UniProt numbers. The list shows a part of the results.
# T1: RBFOX1 RRM RbFoxmut (Fox-RRM*) (Homo sapiens, UniProt Q9NWB1 109-208, R118D;E147R;N151S;E152T)
# T1 sequence: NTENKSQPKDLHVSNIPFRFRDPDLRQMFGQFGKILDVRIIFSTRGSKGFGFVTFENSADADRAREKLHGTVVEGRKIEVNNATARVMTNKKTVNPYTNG
# B1: AGGCUGA (DNA:RNA)
# RNA: GGGAGACCGGAAUUCAGAUUGUCCAGGCUGAUUAAAUCCCGUCGUAGCCACCA
# DNA 1: CAATCTGAATTCCGGTCTCCC
# DNA 2: TGGTGGCTACGACGGGATT
# B2: CACCGGG (DNA:RNA)
# RNA: B1 RNA with A25C, G26A, G27C, U29G, A31G
# DNA 1: CAATCTGAATTCCGGTCTCCC
# DNA 2: TGGTGGCTACGACGGGATT
# B3: UUUUAUA (DNA:RNA)
# RNA: B1 RNA with A25U, G26U, G27U, C28U, U29A, G30U
# DNA 1: CAATCTGAATTCCGGTCTCCC
# DNA 2: TGGTGGCTACGACGGGATT
# B4: AAAUACU (DNA:RNA)
# RNA: B1 RNA with G26A, G27A, C28U, U29A, G30C, A31U
# DNA 1: CAATCTGAATTCCGGTCTCCC
# DNA 2: TGGTGGCTACGACGGGATT
# B5: GGCCGGU (DNA:RNA)
# RNA: B1 RNA with A25G, G27C, U29G, A31U
# DNA 1: CAATCTGAATTCCGGTCTCCC
# DNA 2: TGGTGGCTACGACGGGATT
# B6: GCAGUGA (DNA:RNA)
# RNA: B1 RNA with A25G, G26C, G27A, C28G
# DNA 1: CAATCTGAATTCCGGTCTCCC
# DNA 2: TGGTGGCTACGACGGGATT
# B7: UUAAGCG (DNA:RNA)
# RNA: GGGAGACCGGAAUUCAGAUUGUCCUUAAGCGUUAAAUCCCGUCGUAGCCACCA
# DNA 1: CAATCTGAATTCCGGTCTCCC
# DNA 2: TGGTGGCTACGACGGGATT
# B8: CUGCCUU (DNA:RNA)
# RNA: B1 RNA with A25C, G26U, U29C, G30U, A31U
# DNA 1: CAATCTGAATTCCGGTCTCCC
# DNA 2: TGGTGGCTACGACGGGATT
# B9: AGGAGAA (DNA:RNA)
# RNA: B1 RNA with C28A, U29G, G30A
# DNA 1: CAATCTGAATTCCGGTCTCCC
# DNA 2: TGGTGGCTACGACGGGATT
# B10: GUCGGUC (DNA:RNA)
# RNA: B7 RNA with U25G, A27C, A28G, C30U, G31C
# DNA 1: CAATCTGAATTCCGGTCTCCC
# DNA 2: TGGTGGCTACGACGGGATT
# B11: GUGCUAG (DNA:RNA)
# RNA: B1 RNA with A25G, G26U, G30A, A31G
# DNA 1: CAATCTGAATTCCGGTCTCCC
# DNA 2: TGGTGGCTACGACGGGATT
# B12: ACAGCCG (DNA:RNA)
# RNA: B7 RNA with U25A, U26C, A28G, G29C
# DNA 1: CAATCTGAATTCCGGTCTCCC
# DNA 2: TGGTGGCTACGACGGGATT
# B13: UAGGGGA (DNA:RNA)
# RNA: B1 RNA with A25U, G26A, C28G, U29G
# DNA 1: CAATCTGAATTCCGGTCTCCC
# DNA 2: TGGTGGCTACGACGGGATT
# B14: GGGAACG (DNA:RNA)
# RNA: B7 RNA with U25G, U26G, A27G, G29A
# DNA 1: CAATCTGAATTCCGGTCTCCC
# DNA 2: TGGTGGCTACGACGGGATT
# B15: UGCUACG (DNA:RNA)
# RNA: B7 RNA with U26G, A27C, A28U, G29A
# DNA 1: CAATCTGAATTCCGGTCTCCC
# DNA 2: TGGTGGCTACGACGGGATT
# B16: GCUUAGA (DNA:RNA)
# RNA: B1 RNA with A25G, G26C, G27U, C28U, U29A
# DNA 1: CAATCTGAATTCCGGTCTCCC
# DNA 2: TGGTGGCTACGACGGGATT
# B17: ACGGUAU (DNA:RNA)
# RNA: B1 RNA with G26C, C28G, G30A, A31U
# DNA 1: CAATCTGAATTCCGGTCTCCC
# DNA 2: TGGTGGCTACGACGGGATT
# B18: UUGCGUU (DNA:RNA)
# RNA: B7 RNA with A27G, A28C, C30U, G31U
# DNA 1: CAATCTGAATTCCGGTCTCCC
# DNA 2: TGGTGGCTACGACGGGATT
# B19: ACCAAAA (DNA:RNA)
# RNA: B1 RNA with G26C, G27C, C28A, U29A, G30A
# DNA 1: CAATCTGAATTCCGGTCTCCC
# DNA 2: TGGTGGCTACGACGGGATT
# B20: GAAUUGA (DNA:RNA)
# RNA: B1 RNA with A25G, G26A, G27A, C28U
# DNA 1: CAATCTGAATTCCGGTCTCCC
# DNA 2: TGGTGGCTACGACGGGATT
# Molecular target: T1, RBFOX1 RRM RbFoxmut (Fox-RRM*)
# Test: EMSA; HiTS-Eq, 1 nM pool, 10 min; buffer printed only for the single-RNA assays: 10 mM Tris pH 7.5, 150 mM NaCl, 3.4 mM EDTA, 0.001% NP-40, 30 C
# Conditions: tags: His6 N-terminal (pET28a); label: 5' 32P
# Method in brief: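 A pool of RNA with 7 randomized nucleotides, 5′-radiolabelled and with DNA-annealed flanks, was equilibrated at 1 nM for 10 min in 50 µL with purified RbFox RRM, wild type or mutant, across increasing protein concentrations. Free RNA was separated by 8% native PAGE, excised, reverse-transcribed, barcoded by PCR and sequenced. Relative association constants were obtained from read-count changes of each RNA species versus the control reaction and normalised to the cognate motif.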
row,Binder,binding signal
1,B1,0.127 KA relative to UGCAUGU
2,B2,0.0671 KA relative to UGCAUGU
3,B3,0.15 KA relative to UGCAUGU
4,B4,0.0921 KA relative to UGCAUGU
5,B5,0.103 KA relative to UGCAUGU
6,B6,0.0882 KA relative to UGCAUGU
7,B7,0.104 KA relative to UGCAUGU
8,B8,0.0749 KA relative to UGCAUGU
9,B9,0.123 KA relative to UGCAUGU
10,B10,0.171 KA relative to UGCAUGU
11,B11,0.145 KA relative to UGCAUGU
12,B12,0.118 KA relative to UGCAUGU
13,B13,0.0788 KA relative to UGCAUGU
14,B14,0.472 KA relative to UGCAUGU
15,B15,0.264 KA relative to UGCAUGU
16,B16,0.122 KA relative to UGCAUGU
17,B17,0.112 KA relative to UGCAUGU
18,B18,0.126 KA relative to UGCAUGU
19,B19,0.0761 KA relative to UGCAUGU
20,B20,0.129 KA relative to UGCAUGU
